Values joined by “and” are separate entries in the source; they are usually repeats but may differ in a detail not shown here. Equal values may be shown once.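 Growth conditions: 96-well plates. Treatment: test compound, 48 hours, 5 concentrations. Analysis: linear interpolation between bracketing concentrations; unreached endpoints set to highest concentration. GI50 is the concentration that inhibits growth by half. Definition used: TGI = concentration required for complete inhibition of growth.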
Tested on: NCI-H322M lung
Experiment: NCI tumour cell line growth inhibition, 48 h

C=CC(C)(O)CCC1C(=C)C(O)CC2C(C)(C)CCCC12C (centres undefined) and C=C1C(=O)O[C@@H]2[C@H]1C[C@H](I)[C@@]1(C)CC[C@H](O1)[C@](C)(I)CCCC(C)[C@@H]2O (some centres undefined) are within 1.5-fold of each other in TGI: 44.4 µM for the first, 29.8 µM for the second.

Nc1ncc(Sc2ccccc2C(=O)O)s1 and O=C(O)c1ccccc1CC(Cc1ccccc1)C(=O)O (centres undefined) cannot be ordered by TGI: over 100 µM for the first, over 100 µM for the second.

O=c1c2cccc3cccc(c4n1CCCN=4)c32 and COC(=O)c1cc2ccccc2c2nc3ccccc3c(Cl)c12 cannot be ordered by TGI: over 100 µM for the first, over 100 µM for the second.

Going from O=C1C2C(C(=O)N1CC[Se][Se]CCN1C(=O)C3C(C1=O)[C@H]1C=C[C@@H]3C1)[C@H]1C=C[C@@H]2C1 (some centres undefined) to CC(=O)O[C@H]1C[C@@H](OC(C)=O)[C@@](C)(O)[C@@H]2[C@@H](OC(C)=O)[C@@]3(O)[C@H](/C=C(/CCl)[C@H]4O[C@H]4[C@@H](OC(C)=O)[C@@]12C)OC(=O)[C@@H]3C, the TGI rises from 3.73 µM to over 25 µM.

CO[C@]12C[C@@H](CNC(=O)c3cc(Br)c[nH]3)O[C@H]1NC(=O)N2 and Nc1nc2c(c(=O)[nH]1)NC(CCNc1ccc(C(=O)O)cc1)CN2 (centres undefined) cannot be ordered by TGI: over 100 µM for the first, over 100 µM for the second.

O=C(O)Cc1ccc(Oc2nc3ccccc3nc2-c2ccccc2)cc1 and O=S(=O)(O)c1ccc2c(N=Nc3c(O)ccc4ccccc34)cccc2c1 cannot be ordered by TGI: over 100 µM for the first, over 100 µM for the second.

CCN(CC)C(=S)SSCCO and CCN(CC)CCS(=O)(=O)CCNc1ccnc2cc(Cl)ccc12 cannot be ordered by TGI: over 100 µM for the first, over 87.7 µM for the second.

Cc1cc(-c2ccco2)cc(C)c1/C=C/c1cncc(-c2nn[nH]n2)c1 and Cc1cc2c(cc1C)[n+](=O)c(C(=O)/C=C/c1ccccc1[N+](=O)[O-])c(C)n2[O-] cannot be ordered by TGI: over 25 µM for the first, over 100 µM for the second.

CC(=O)OC1CC[C@@]2(C)C(=CC[C@@H]3[C@@H]2CC[C@]2(C)C(OC(C)=O)[C@H](n4ccnc4)C[C@@H]32)C1 (some centres undefined) and CC(C)CCCC(C)[C@H]1CCC2[C@@H]3CCC4Cc5nc6c(nc5C[C@]4(C)C3CC[C@@]21C)CC1CC[C@@H]2C(CC[C@@]3(C)C2CC[C@@H]3O)[C@@]1(C)C6 (some centres undefined) cannot be ordered by TGI: over 100 µM for the first, over 100 µM for the second.

CCOC(=O)[C@@H]1C[C@@H]1c1ccc(O)c(O)c1 and CCOC(=O)n1c2ccccc2c(=O)n1CCO cannot be ordered by TGI: over 100 µM for the first, over 100 µM for the second.

Nc1ncnc2c1ncn2CCOC(c1ccccc1)P(=O)(O)O (centres undefined) and Nc1ncnc2c1N=C(c1ccccc1)CC(c1ccccc1)N2 (centres undefined) cannot be ordered by TGI: over 100 µM for the first, over 100 µM for the second.

Compared with CC(=O)N1c2ccccc2[C@H]2CCc3c([nH]c4ccccc34)[C@H]21, COC(=O)c1ccccc1/C=C1\Cc2ccc3ccccc3c2C1C (centres undefined) is higher in TGI: 32 µM for the first, over 100 µM for the second.

First: COc1cc(S(=O)(=O)Nc2ccc(-c3csc(/N=C\c4cccs4)n3)cc2)ccc1Cl
Second: CCCCOc1ccc(S(=O)(=O)/N=C(\N)Nc2ccc(Cl)cc2)cc1
The TGI of the first is higher: over 100 µM for the first, 27.8 µM for the second.

Cc1c(C)c2ccc(OC(C)C(=O)O)cc2oc1=O (centres undefined) and CCOC(=O)C(C)(Cc1ccc(O)cn1)NC(=O)c1ccccc1 (centres undefined) cannot be ordered by TGI: over 100 µM for the first, over 100 µM for the second.

CC(C)(CC1(C)NC(=O)NC1=O)OCc1ccccc1 (centres undefined) and O=S(=O)(Cc1ccccc1)SCc1ccccc1 cannot be ordered by TGI: over 100 µM for the first, over 100 µM for the second.

Going from CCN(CCCl)c1cc(CN(C)C)cc(NC(=O)c2cc(C(=O)Nc3cc(CN(C)C)cc(N(CC)CCCl)c3)n(C)n2)c1 to CC(=O)Nc1cc(/C=C\C(=O)N2CC(CCl)c3c2cc(N)c2ccccc32)n(C)n1 (centres undefined), the TGI falls from 3.46 µM to 0.338 µM (10-fold).

Going from CC(C)=NNc1ncnc2nc[nH]c12 to FC(F)(F)c1cnc(N/N=C(/c2ccccc2)c2ccccn2)c(Cl)c1, the TGI falls from over 50.1 µM to 21 µM.

First: COc1ccc2nc(-c3ccc(O)cc3)ccc2c1
Second: Cc1ccc(O)cc1Nc1ccnc2cc(-c3ccccn3)ccc12
The TGI of the first is higher: over 100 µM for the first, 5.05 µM for the second.

CSC1(Cc2ccccn2)C(=O)Nc2cccc([N+](=O)[O-])c21 (centres undefined) and CC(=O)c1sc2c(c1O)c(=O)n(-c1ccccc1)c(=S)n2-c1ccccc1 cannot be ordered by TGI: over 100 µM for the first, over 100 µM for the second.

Cc1nn2c(-c3nc4cc(Cl)c(Cl)cc4[nH]3)c(-c3ccc(F)cc3)nc2s1 and O=C(c1ccccc1)c1ccc2nc3n(c2c1)C(c1c(Cl)cccc1Cl)SC3 (centres undefined) cannot be ordered by TGI: over 25.1 µM for the first, over 100 µM for the second.

First: Clc1ccc(Cn2cc(/C=N/n3cnnc3)c3ccccc32)cc1
Second: C/C(=N\Nc1nc2ccccc2n1C)c1ccc2ccccc2n1
The TGI of the first is higher: over 100 µM for the first, 9.72 µM for the second.

First: N#Cc1cccc(C2C3=C(COC3=O)N(CCO)c3cc4c(cc32)CCC4)c1 (centres undefined)
Second: CCN(CC)Cc1cc(Nc2cc(C(F)(F)F)c(C#N)c3nc4ccccc4n23)ccc1O
The TGI of the first is higher: over 50 µM for the first, 13.4 µM for the second.

C1CCN2CC3CONC3C2C1 (centres undefined) and CC1(C)CC(O)CC(C)(C)N1.CC1(C)CC(O)CC(C)(C)N1.CC1(C)CC(O)CC(C)(C)N1.CC1(C)CC(O)CC(C)(C)N1.Cl.[Ti] cannot be ordered by TGI: over 100 µM for the first, over 100 µM for the second.

CSc1nc(C)c(CCOC(C)=O)c(N=P(c2ccccc2)(c2ccccc2)c2ccccc2)n1 and CC1(C)N=C(N)N=C(N)N1c1ccc(OCCCCNC(=O)Nc2cccc(S(=O)(=O)F)c2)c(Cl)c1 cannot be ordered by TGI: over 10 µM for the first, over 100 µM for the second.

Going from C/C(CC(=O)Nc1cccc(Cl)c1C)=N\N=C(N)N to NC(N)=N/N=C\c1c(-c2ccccc2)nc2sccn12, the TGI falls from over 100 µM to 31.2 µM.

CCOC(=O)C1=C(C)N(Cc2ccc(Cl)cc2Cl)[C@]2(C#N)C(O)=C(Cl)C(Cl)=C(O)[C@]12C#N and COCCOCCOCCC(=O)NC1CC2CCC1(C)C2(C)C (centres undefined) cannot be ordered by TGI: over 100 µM for the first, over 100 µM for the second.

Going from O=C1C2C(C(=O)N1CC[Se][Se]CCN1C(=O)C3C(C1=O)[C@H]1C=C[C@@H]3C1)[C@H]1C=C[C@@H]2C1 (some centres undefined) to N#Cc1cccc(C2C3=C(COC3=O)N(CCO)c3cc4c(cc32)CCC4)c1 (centres undefined), the GI50 falls from 0.467 µM to 0.274 µM (1.7-fold).

Going from CCN(CC)C(=S)SSCCO to CCN(CC)CCS(=O)(=O)CCNc1ccnc2cc(Cl)ccc12, the GI50 falls from over 100 µM to 11.5 µM.

Going from Cc1cc(-c2ccco2)cc(C)c1/C=C/c1cncc(-c2nn[nH]n2)c1 to Cc1ccc(O)cc1Nc1ccnc2cc(-c3ccccn3)ccc12, the GI50 falls from over 25 µM to 0.911 µM.

Cc1nn2c(-c3nc4cc(Cl)c(Cl)cc4[nH]3)c(-c3ccc(F)cc3)nc2s1 and CCN(CC)Cc1cc(Nc2cc(C(F)(F)F)c(C#N)c3nc4ccccc4n23)ccc1O are within 1.5-fold of each other in GI50: 2.47 µM for the first, 3.22 µM for the second.

First: CC1(C)N=C(N)N=C(N)N1c1ccc(OCCCCNC(=O)Nc2cccc(S(=O)(=O)F)c2)c(Cl)c1
Second: CCOC(=O)C1=C(C)N(Cc2ccc(Cl)cc2Cl)[C@]2(C#N)C(O)=C(Cl)C(Cl)=C(O)[C@]12C#N
The GI50 of the first is lower: 3.21 µM for the first, over 100 µM for the second.

For CC1(C)CC(O)CC(C)(C)N1.CC1(C)CC(O)CC(C)(C)N1.CC1(C)CC(O)CC(C)(C)N1.CC1(C)CC(O)CC(C)(C)N1.Cl.[Ti], the GI50 was over 100 µM.

In the case of C=C(Cl)C(Cl)(CBr)CCC(Br)C(C)(C)Cl (centres undefined), the TGI is reported as 3.26 µM and 4.91 µM and 6.83 µM.
